Measured values published in patent US20240124575A1 (SIMCERE ZAIMING PHARMACEUTICAL, published 2024).

T1: murine CD33 protein (murine, UniProt Q63994 18-240, limits assumed)
T1 construct: The printed catalogue numbers for murine and monkey CD33 may be interchanged; also called murine CD33-His protein
T1 sequence (looked up): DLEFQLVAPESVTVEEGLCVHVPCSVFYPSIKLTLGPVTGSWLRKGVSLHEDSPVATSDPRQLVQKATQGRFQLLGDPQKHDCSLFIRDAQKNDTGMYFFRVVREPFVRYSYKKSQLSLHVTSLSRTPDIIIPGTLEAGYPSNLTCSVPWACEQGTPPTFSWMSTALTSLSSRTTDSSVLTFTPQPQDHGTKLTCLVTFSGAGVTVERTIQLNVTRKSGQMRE

T2: murine CD33-His protein (murine, UniProt Q63994 18-240, limits assumed)
T2 construct: also called murine CD33 protein
T2 sequence (looked up): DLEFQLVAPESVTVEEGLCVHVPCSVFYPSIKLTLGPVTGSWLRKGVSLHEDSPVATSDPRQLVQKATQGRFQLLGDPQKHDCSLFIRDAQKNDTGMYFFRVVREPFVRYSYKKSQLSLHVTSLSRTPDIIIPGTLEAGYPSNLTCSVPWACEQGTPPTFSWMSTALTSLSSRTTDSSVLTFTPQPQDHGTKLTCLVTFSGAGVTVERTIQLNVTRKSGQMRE


How the values were obtained:
murine CD33 protein [1] = molecular target: T1, murine CD33 protein; test: ELISA, coated murine CD33, antibody 10 nM
monkey CD33 protein [2] = molecular target: T3, monkey CD33 protein (monkey); test: ELISA, coated monkey CD33, antibody 0.0001 nM
T3 construct: The printed catalogue numbers for murine and monkey CD33 may be interchanged; also called monkey CD33-His protein

murine CD33 protein [3] = molecular target: T1, murine CD33 protein; test: ELISA, coated murine CD33, antibody 100 nM
[4] = molecular target: T4, monkey CD33 on HEK293T-monkey CD33 cells (monkey); test: FACS on HEK293T-monkey CD33 cells
T4 construct: whole, on cells

murine CD33 protein [5] = molecular target: T1, murine CD33 protein; test: ELISA, coated murine CD33, antibody 0.1 nM
monkey CD33 protein [6] = molecular target: T3, monkey CD33 protein; test: ELISA, coated monkey CD33, antibody 0.001 nM
monkey CD33 protein [7] = molecular target: T3, monkey CD33 protein; test: ELISA, coated monkey CD33, antibody 0.01 nM
monkey CD33 protein [8] = molecular target: T3, monkey CD33 protein; test: ELISA, coated monkey CD33, antibody 100 nM
murine CD33 protein [9] = molecular target: T1, murine CD33 protein; test: ELISA, coated murine CD33, antibody 0.0001 nM
murine CD33 protein [10] = molecular target: T1, murine CD33 protein; test: ELISA, coated murine CD33, antibody 0.001 nM
monkey CD33 protein [11] = molecular target: T3, monkey CD33 protein; test: SPR (Biacore), antibody captured on Protein A chip, monkey CD33 protein as analyte
murine CD33 protein [12] = molecular target: T1, murine CD33 protein; test: ELISA, coated murine CD33, antibody 0.01 nM
murine CD33 protein [13] = molecular target: T1, murine CD33 protein; test: ELISA, coated murine CD33, antibody 1 nM
monkey CD33 protein [14] = molecular target: T3, monkey CD33 protein; test: ELISA, coated monkey CD33, antibody 10 nM
monkey CD33 protein [15] = molecular target: T3, monkey CD33 protein; test: ELISA, coated monkey CD33, antibody 0.1 nM
monkey CD33 protein [16] = molecular target: T3, monkey CD33 protein; test: ELISA, coated monkey CD33, antibody 1 nM
murine CD33-His protein = molecular target: T2, murine CD33-His protein; test: ELISA on coated murine CD33-his
human CD33-V-his = molecular target: T5, human CD33-V-his (human, UniProt P20138 18-144); test: ELISA on coated human CD33-V-his
Sequence of human CD33-V-his (P20138 other isoform, or with tags, fused parts or gaps limits assumed): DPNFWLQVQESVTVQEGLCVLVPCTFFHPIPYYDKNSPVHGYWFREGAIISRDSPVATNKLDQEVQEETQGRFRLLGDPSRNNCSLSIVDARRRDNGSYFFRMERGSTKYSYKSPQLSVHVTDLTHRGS
T5 construct: expressed in HEK293E; also called hCD33-V-his; human CD33 protein V-domain; not shown: His tag

human CD33-His = molecular target: T6, human CD33-His (human, UniProt P20138 18-259); test: SPR (Biacore), antibody captured on Protein A chip, human CD33-his as analyte
Sequence of human CD33-His (P20138 18-259 limits assumed): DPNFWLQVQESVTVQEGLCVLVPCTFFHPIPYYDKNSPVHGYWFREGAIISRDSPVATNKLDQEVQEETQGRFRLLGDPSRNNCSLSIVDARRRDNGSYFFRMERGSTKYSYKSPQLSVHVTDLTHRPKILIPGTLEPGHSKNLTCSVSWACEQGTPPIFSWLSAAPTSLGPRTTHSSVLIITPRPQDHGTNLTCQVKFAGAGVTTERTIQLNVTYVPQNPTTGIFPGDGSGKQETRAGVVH
T6 construct: range 18-259; Bought protein; also called human CD33-his protein; hCD33-his; not shown: His tag

Binder	OD450 (murine CD33 protein [1]) [OD450]	OD450 (monkey CD33 protein [2]) [OD450]	OD450 (murine CD33 protein [3]) [OD450]	EC50 [4] [nM]	Max MFI [4] [MFI]	OD450 (murine CD33 protein [5]) [OD450]	OD450 (monkey CD33 protein [6]) [OD450]	OD450 (monkey CD33 protein [7]) [OD450]	OD450 (monkey CD33 protein [8]) [OD450]	OD450 (murine CD33 protein [9]) [OD450]	OD450 (murine CD33 protein [10]) [OD450]	Kd (monkey CD33 protein [11]) [nM]	koff (monkey CD33 protein [11]) [s⁻¹]	kon (monkey CD33 protein [11]) [M⁻¹ s⁻¹]	OD450 (murine CD33 protein [12]) [OD450]	OD450 (murine CD33 protein [13]) [OD450]	OD450 (monkey CD33 protein [14]) [OD450]	OD450 (monkey CD33 protein [15]) [OD450]	OD450 (monkey CD33 protein [16]) [OD450]	binding result (murine CD33-His protein)	also measured
S006-NB146-16 (Fc fusion, also called S006-NB146-16 VHH-Fc) EVQLVESGGGLVPAGGSLRLSCAASGSIANIQVMGWYRQAPGSQRALVAQITVTGDRATNYADSVKGRFTISRDNAKNAVYLSINPLKSEDTGVYYCNARSYYGQHNYWGQGTQVTVSS[letters of human IgG1 Fc with changes left out]	0.06	0.06	0.07	121	2800	0.05	0.13	0.67	2.34	0.06	0.1	110	0.0154	140000	0.06	0.05	2.42	1.53	2.26	–	–
S006-NB146-39-aH10 (Fc fusion, also called humanized VHH-Fc) EVQLVESGGGLVQPGGSLRLSCTAPGIILDYYPIGWFRQAPGKEREGVAFITNSDDSTIYTNYADSVKGRFTISRDKNSLYLQMNSLRAEDTAVYYCAARSTYIVGRNENALNSADYDYWGQGTMVTVSS[letters of human IgG1 Fc with changes left out]	–	–	–	–	–	–	–	–	–	–	–	–	–	–	–	–	–	–	–	no binding (tested: 100 nM)	binding result (human CD33-V-his): no binding (tested: 100 nM)
S006-NB146-69 (Fc fusion, also called S006-NB146-69 VHH-Fc) EVQVVESGGGLVQAGGSLSLSCAASGSIFTINIMGWYRQAPGKQRELVAQINRVGDTNYPNSMAERFTISRDNAKNTMYLQMNTLKPEDTAVYYCNADIVESGRYSGKDYWGKGTLVTVSL[letters of human IgG1 Fc with changes left out]	1.29	0.05	1.9	66.1	3460	0.1	0.09	0.41	2.33	0.06	0.06	7.15	0.00119	167000	0.07	0.35	2.45	1.18	2.21	–	Kd (human CD33-His): 48.6 nM; koff (human CD33-His): 0.00326 s⁻¹; kon (human CD33-His): 67100 M⁻¹ s⁻¹
S006-NB146-181 (Fc fusion) QVQLVESGGGLVQAGGSLRLSCAASGSIFSMGWYRQAPGKQRELVAAIANGGTTTNYANSVKDRFTISRDNAKNTVYLQMNSLRPEDTAVYYCYAKRSWDSSSYWGQGTQVTVSS[letters of human IgG1 Fc with changes left out]	0.06	0.05	0.07	121	2900	0.05	0.07	0.26	2.31	0.06	0.06	27.2	0.00198	72800	0.05	0.06	2.33	1.02	2.21	–	–
S006-NB146-150 (Fc fusion, also called S006-NB146-150 VHH-Fc) QLQLVESGGGLVQAGGSLRLSCAASGNSLGVYNLGWYRQAPGEQRELVATINSRGDTNYVNSVAGRFTISRVNARNTENTVYLQMNRLQPEDTAVYYCIAQRGWGREYDIWGPGTQVTVSS[letters of human IgG1 Fc with changes left out]	0.08	0.05	0.17	45.1	3310	0.06	0.1	0.57	2.37	0.06	0.06	41.6	0.0064	154000	0.06	0.07	2.44	1.5	2.41	–	–
S006-NB147-25 (Fc fusion, also called S006-NB147-25 VHH-Fc) QLQLVESGGGLVQAGGSLRLSCKASGVTFSINALGWYRQAPGKQREMVAVISSGGSTNYVDSVKGRFTISRDNAKNTVYLQMNSLKPEDTAVYYCNADVVGSSWSPEYDYWGQGTQVTVST[letters of human IgG1 Fc with changes left out]	0.06	0.06	0.07	31.2	4890	0.05	0.1	0.47	2.58	0.06	0.06	5.76	0.00234	406000	0.05	0.05	2.64	1.39	2.44	–	Kd (human CD33-His): 1.12 nM; koff (human CD33-His): 0.000158 s⁻¹; kon (human CD33-His): 141000 M⁻¹ s⁻¹
S006-NB147-220 (Fc fusion, also called S006-NB147-220 VHH-Fc) QLQLVESGGGMVQPGGSLRLSCAASGFTLDYYAIGWFRQAPGKEREGVSCINSGDSSTYYADSVKGRFTISRDNAENTVYLQMNSLKPEDTAVYYCATVDTLIVAGNLEECRYDMDYWGKGTLVTVSS[letters of human IgG1 Fc with changes left out]	0.06	0.05	0.07	10.2	6190	0.06	0.08	0.34	2.47	0.06	0.06	2.43	0.00148	608000	0.06	0.06	2.46	1.19	2.23	–	Kd (human CD33-His): 2.75 nM; koff (human CD33-His): 0.000497 s⁻¹; kon (human CD33-His): 181000 M⁻¹ s⁻¹

Now from value to binder, other results behind:

OD450 (murine CD33 protein [1]) [OD450]	OD450 (monkey CD33 protein [2]) [OD450]	OD450 (murine CD33 protein [3]) [OD450]	EC50 [4] [nM]	Max MFI [4] [MFI]	OD450 (murine CD33 protein [5]) [OD450]	OD450 (monkey CD33 protein [6]) [OD450]	OD450 (monkey CD33 protein [7]) [OD450]	OD450 (monkey CD33 protein [8]) [OD450]	OD450 (murine CD33 protein [9]) [OD450]	OD450 (murine CD33 protein [10]) [OD450]	Kd (monkey CD33 protein [11]) [nM]	koff (monkey CD33 protein [11]) [s⁻¹]	kon (monkey CD33 protein [11]) [M⁻¹ s⁻¹]	OD450 (murine CD33 protein [12]) [OD450]	OD450 (murine CD33 protein [13]) [OD450]	OD450 (monkey CD33 protein [14]) [OD450]	OD450 (monkey CD33 protein [15]) [OD450]	OD450 (monkey CD33 protein [16]) [OD450]	binding result (murine CD33-His protein)	Binder	also measured
–	–	–	–	–	–	–	–	–	–	–	–	–	–	–	–	–	–	–	no binding (tested: 100 nM)	S006-NB146-39-aH13 (Fc fusion, also called humanized VHH-Fc) EVQLVESGGGLVQPGGSLRLSCAASGIILDYYPIGWFRQAPGKEREGVAFITNSDSSTIYTNYADSVKGRFTISREKNTLYLQMNSLRAEDTAVYYCAARSTYIVGRNENALNSADYDYWGQGTMVTVSS[letters of human IgG1 Fc with changes left out]	binding result (human CD33-V-his): no binding (tested: 100 nM)
–	–	–	–	–	–	–	–	–	–	–	–	–	–	–	–	–	–	–	no binding (tested: 100 nM)	S006-NB146-39-aH11 (Fc fusion, also called humanized VHH-Fc) EVQLVESGGGLVQPGGSLRLSCTAPGIILDYYPIGWFRQAPGKEREGVAFITNSDSSTIYTNYADSVKGRFTISRDKNSLYLQMNSLRAEDTAVYYCAARSTYIVGRNENALNSADYDYWGQGTMVTVSS[letters of human IgG1 Fc with changes left out]	binding result (human CD33-V-his): no binding (tested: 100 nM)
–	–	–	–	–	–	–	–	–	–	–	–	–	–	–	–	–	–	–	no binding (tested: 100 nM)	S006-NB146-39-aH12 (Fc fusion, also called humanized VHH-Fc) EVQLVESGGGLVQPGGSLRLSCAASGIILDYYPIGWFRQAPGKEREGVAFITNSDDSTIYTNYADSVKGRFTISREKNTLYLQMNSLRAEDTAVYYCAARSTYIVGRNENALNSADYDYWGQGTMVTVSS[letters of human IgG1 Fc with changes left out]	binding result (human CD33-V-his): no binding (tested: 100 nM)
–	–	–	–	–	–	–	–	–	–	–	–	–	–	–	–	–	–	–	no binding (tested: 100 nM)	S006-NB146-39-aH15 (Fc fusion, also called humanized VHH-Fc) EVQLVESGGGLVQPGGSLRLSCAASGIILDYYPIGWFRQAPGKGREGVAFITNSDDSTIYTNYADSVKGRFTISRDKNSLYLQMNSLRAEDTAVYYCAARSTYIVGRNENALNSADYDYWGQGTMVTVSS[letters of human IgG1 Fc with changes left out]	binding result (human CD33-V-his): no binding (tested: 100 nM)
